About 14,000 (4.5%) of roughly 310,000 compounds showed an effect of 50% or more. The effect is printed as a negative number. Some of the results follow.
Target: human ether-à-go-go-related gene (hERG) potassium channel (human, UniProt Q12809)
Test: primary screen, population patch clamp on CHO cells stably expressing hERG
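Also: peak tail current of the secondary pulse compared with the same well before compound.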

human ether-à-go-go-related gene (hERG) potassium channel, sequence (Q12809 whole entry, looked up): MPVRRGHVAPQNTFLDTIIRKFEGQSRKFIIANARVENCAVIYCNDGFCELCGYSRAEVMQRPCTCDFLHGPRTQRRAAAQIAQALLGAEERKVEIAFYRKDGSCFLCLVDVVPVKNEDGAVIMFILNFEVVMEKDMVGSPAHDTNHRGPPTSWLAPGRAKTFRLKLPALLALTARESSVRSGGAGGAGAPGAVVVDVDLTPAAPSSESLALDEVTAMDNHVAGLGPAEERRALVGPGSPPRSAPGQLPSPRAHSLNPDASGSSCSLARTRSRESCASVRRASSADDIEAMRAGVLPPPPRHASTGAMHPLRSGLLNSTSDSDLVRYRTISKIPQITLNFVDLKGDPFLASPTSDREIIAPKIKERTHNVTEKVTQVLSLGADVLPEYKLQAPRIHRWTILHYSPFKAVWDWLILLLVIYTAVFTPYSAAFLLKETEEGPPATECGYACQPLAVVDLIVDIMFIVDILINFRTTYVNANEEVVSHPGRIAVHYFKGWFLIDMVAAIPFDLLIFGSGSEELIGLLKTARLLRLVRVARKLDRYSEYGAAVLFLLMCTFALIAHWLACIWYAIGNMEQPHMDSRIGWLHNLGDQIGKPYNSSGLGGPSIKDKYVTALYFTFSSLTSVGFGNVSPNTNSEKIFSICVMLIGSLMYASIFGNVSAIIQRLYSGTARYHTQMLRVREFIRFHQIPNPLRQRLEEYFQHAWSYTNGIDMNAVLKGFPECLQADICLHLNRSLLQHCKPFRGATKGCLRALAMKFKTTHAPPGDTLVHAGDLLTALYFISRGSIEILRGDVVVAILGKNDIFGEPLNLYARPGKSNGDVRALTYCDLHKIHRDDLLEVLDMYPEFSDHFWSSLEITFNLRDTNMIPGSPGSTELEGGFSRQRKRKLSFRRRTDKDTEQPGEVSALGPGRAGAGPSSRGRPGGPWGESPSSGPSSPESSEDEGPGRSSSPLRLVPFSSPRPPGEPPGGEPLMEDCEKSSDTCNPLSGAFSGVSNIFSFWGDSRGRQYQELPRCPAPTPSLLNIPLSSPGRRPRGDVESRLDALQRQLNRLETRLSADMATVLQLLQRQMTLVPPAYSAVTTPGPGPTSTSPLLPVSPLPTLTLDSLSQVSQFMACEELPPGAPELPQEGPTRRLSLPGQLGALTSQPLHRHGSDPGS

Structure (SMILES)	hERG current change (%, negative = inhibition) at 10uM [%]
CC1CC(CC(=O)NNc2nc(-c3ccccc3)cs2)C(=O)O1 (stereo not drawn)	26.9
O=C(O)c1ccc(NC(=O)c2ccc3c(c2)C(=O)N(c2ccccc2)C3=O)cc1	0.309
O=C(O)CN1C(=O)/C(=C/C=C/c2ccccc2)SC1=S	6.43
COc1ccc(C(c2c[nH]c3ccccc23)c2c[nH]c3ccccc23)cc1O	-5.44
COc1ccc2oc(C(=O)NCc3ccco3)c(C)c2c1	8.36
CCOc1ccc(N2CC(O)(c3ccc(F)cc3)[N+]3=C2CCCC3)cc1.[Br-] (stereo not drawn)	-71.6
O=C(O)c1ccccc1C(=O)Nc1nc(-c2ccc3ccccc3c2)cs1	28.5
O=C(Nn1cnnc1)c1cc(Cl)cc(Cl)c1	24.9
COc1cccc(NC(=O)CN(C)C(=O)c2csc3c2CCCC3)c1	-7.46
NC(=O)NOCc1ncc(C(F)(F)F)cc1Cl	10.4
O=C(CSc1ccc(-c2ccco2)nn1)Nc1ccccc1F	-43.4
O=C(NCCCN1CCOCC1)c1ccc2c(=O)n(CCc3ccccc3)c(=O)[nH]c2c1	-0.86
COc1ncccc1-c1nnn(-c2ccccc2Br)n1	-2.1
CCN1CCN(Cc2nc(N)nc(Nc3ccc(C)c(C)c3)n2)CC1	-65.8
O=C(CSC1=NC2(CCCCC2)N=C1c1ccccc1)Nc1ccc2c(c1)OCCO2	4.15
O=C(COC(=O)CNC(=O)c1cccc(OC(F)F)c1)NNC(=O)c1ccccc1	2.87
O=C(NCCc1ccc(Cl)cc1Cl)c1cccnc1	-7.34
O=C(NC1(C(F)(F)F)OCCO1)c1ccc(F)cc1	22.7
CCn1ncc(S(=O)(=O)N2CCN(c3cccc(OC)c3)CC2)c1C	5.68
Cc1cccc(C(=O)NCC(=O)N2CCCC2)c1	7.78
CCOC(=O)CSc1nc(C2CC2)cc(-c2ccc(Cl)cc2)c1C#N	0.43
O=C(CS(=O)(=O)Cc1ccccc1)Nc1cccnc1	12.9

Structure (SMILES)	hERG current change (%, negative = inhibition) at 10uM [%]
Cc1c(N2C(=O)CS/C2=N\N=C\c2ccc(Br)cc2)c(=O)n(-c2ccccc2)n1C	-26.7
O=Cc1ccc(Oc2ncccn2)cc1	-3.68
Cc1cccc(OCC(=O)NCCNC(=O)c2ccncc2)c1	19.9
CC(=O)Nc1ccc(S(=O)(=O)N2CCN(CCCOc3ccccc3Cl)CC2)cc1	-49.6
CC1CCc2c(sc(NC(=O)COC(=O)C3CCCO3)c2C#N)C1 (stereo not drawn)	1.37
O=C(N/N=C\c1c(O)ccc2ccccc12)c1ccc(O)cc1	14.3
CCN(C(=O)COC(=O)C(Cc1ccccc1)N1C(=O)c2ccccc2C1=O)C1CCS(=O)(=O)C1 (stereo not drawn)	-29
Oc1c(Br)cc(/C=N/Nc2nncc3ccccc23)cc1Br	27.8
COc1ccc(CSc2nc(C)cc(=O)[nH]2)cc1	1.88
O=C(O)c1cccc(S(=O)(=O)N2CCN(Cc3ccc4c(c3)OCO4)CC2)c1	28.4
Cc1ccc2nc(-c3ccccc3)cc(C(=O)N(C)CC(=O)Nc3ccccc3Br)c2c1	-11
Cc1cc(NC(=O)CSc2nnc(-c3c[nH]c4ccccc34)n2-c2ccc(Cl)cc2)no1	9.4
O=C(COC(=O)CCc1c[nH]c(=O)[nH]1)Nc1cccc(Cl)c1	-3.29
CCn1c(=O)c2cc(C(=O)NCCN3CCOCC3)sc2c2ccccc21	0.389
COc1ccc(Cl)cc1NC(=O)Nc1ccc(C(=O)N2CCCC2)cc1	-6.41
CCOC(=O)c1c(CN2CCOCC2)n(C)c2cc(Br)c(O)c(CN(C)C)c12.Cl	-26.6
CCCOc1cccc(C(=O)N2CCN(C(=O)C3CCCO3)CC2)c1 (stereo not drawn)	7.15
Cc1ccc(NC(=O)c2ccc(S(=O)(=O)NCc3ccco3)cc2)cc1	8.38
CCC1CCCCN1C(=O)CCn1ccnc1 (stereo not drawn)	39.8
Nc1c(C(=O)CSc2nccn2-c2cccc(F)c2)c(=O)[nH]c(=O)n1C1CC1	10.2
O=C(COC(=O)CNC(=O)c1ccccc1)NC1CCCCC1	-3.32
COc1ccc(N2CCN(c3ccc(NC(=O)C4CCCCC4)cc3C#N)CC2)cc1	15.2

Structure (SMILES)	hERG current change (%, negative = inhibition) at 10uM [%]
CCn1c(SCC(=O)c2ccc(C)cc2)nnc1-c1ccncc1	10.7
Cc1ccc2c(c1)[C@@H]1CN(C)CC[C@@H]1N2S(=O)(=O)c1ccc(F)cc1.Cl	-29.1
CC1Cc2ccccc2N1C(=O)CSc1nnc2c(n1)[nH]c1ccccc12 (stereo not drawn)	4.82
C=Cn1ccnc1P(=S)(c1c(C)nn(-c2ccccc2)c1C)c1nccn1C=C	-0.536
CN(CC(=O)Nc1ccccc1Cl)C(=O)COC(=O)c1cc([N+](=O)[O-])ccc1N1CCOCC1	-44.4
Cc1ccc(-n2nc(C(=O)NCc3ccco3)c3c4ccccc4n(C)c3c2=O)cc1	10.4
O=C(O)C(Cc1ccccc1)N1C(=O)/C(=C/c2cccc3ccccc23)SC1=S (stereo not drawn)	15.1
Cc1cc(NS(=O)(=O)c2ccc(NC(=O)c3cc4ccccc4o3)cc2)nc(C)n1	-0.991
CC(C)NC(=O)c1ccccc1-c1nc(-c2ccccc2Cl)no1	-5.34
O=C(CSc1nnnn1-c1ccc2c(c1)CCC2)Nc1ccc2c(c1)OCCO2	-2.13
COc1ccc(C2CC(c3ccccc3)=NN2C(=O)COC(=O)COc2ccccc2)cc1 (stereo not drawn)	9.4
CC(Nc1ccc(N2CCOCC2)cc1)C(=O)N1c2ccccc2CC1C (stereo not drawn)	4.02
Cc1cc(NC(=O)c2c(F)cccc2Cl)n(-c2nc3ccccc3[nH]2)n1	-0.633
N#Cc1c(N)nc(SCC(=O)OCc2ccccc2)c(C#N)c1-c1ccco1	-20.8
O/C(=C\Sc1nnc(Cc2ccccc2)o1)c1ccc(F)cc1	-5.33
CCOC(=O)c1sc(NC(=O)CN2C(=O)NC3(CC(C)CC(C)(C)C3)C2=O)cc1C (stereo not drawn)	6.49
O=C(N/N=C/c1cccnc1)c1cccc(NC(=O)c2ccccc2Cl)c1	21.5
O=C(NC(Cc1c[nH]c2ccccc12)C(=O)Nc1ccc(OC(F)(F)F)cc1)c1cccs1 (stereo not drawn)	-10.7
CC1(C)OC(=O)C(=Cc2ccc(-c3ccc(S(N)(=O)=O)cc3)o2)C(=O)O1	13.6
Cc1nc2cccc(C(=O)NC3CCCCC3)c2o1	8.8
Cc1ccc(C)c(N(CC(=O)NCc2ccco2)C(=O)CNS(=O)(=O)c2ccccc2)c1	4.84
Cc1cc(C)n(CCNC(=O)CC2C(=O)NCCN2Cc2ccc(C)o2)n1 (stereo not drawn)	12.6

Structure (SMILES)	hERG current change (%, negative = inhibition) at 10uM [%]
CC(C)OC(=O)NC(C)(C)COC(=O)Nc1cccc(Cl)c1	-3.14
NC(=O)c1cc(N2C(=O)C3CC=CCC3C2=O)ccc1N1CCCCC1 (stereo not drawn)	-22.2
O=C(c1ccc(N2CCCC2=O)cc1)N1CCOCC1	15.5
CCOc1ccc2c(c1)[nH]c(=S)n2C	4.86
O=C(NCc1ccco1)C(=O)NCC1OCCN1S(=O)(=O)c1ccc(F)cc1 (stereo not drawn)	-2.51
O=C(N1CCOCC1)N1CCCC(c2nc(-c3cccs3)no2)C1 (stereo not drawn)	-8.73
Cc1ccc(-n2nnc3c(SCC(=O)NCC4CCCO4)ncnc32)cc1 (stereo not drawn)	-13.1
Cc1ccc(C(=O)NCC(=O)OCC(=O)c2ccc(Br)s2)cc1	12.9
O=C(Nc1ccccc1Cl)c1ccc(S(=O)(=O)N2CCOCC2)cc1	3.26
CC(C#N)Sc1ncnc2sc3c(c12)CCC3 (stereo not drawn)	0.835
CC1CCN(C(=O)COC(=O)[C@H](C)NS(=O)(=O)/C=C/c2ccccc2)CC1	-6.14
CCOc1cccc2cc(C(=O)Nc3cc(C)on3)c(=O)oc12	-7.3
COc1cc(C(=O)O/N=C2\C=CC(=O)C(C)=C2)cc(OC)c1OC	5.24
O=C(O)c1ccc(CSCc2ccco2)cc1	20.6
Cc1cc(C)c2c(N)c(C(=O)c3ccccc3)sc2n1	8.02
CN1c2ccccc2C(C)(C)C12CC(CCl)=NO2 (stereo not drawn)	11
O=C(CCN(NC(=O)c1ccccc1)C1=NS(=O)(=O)c2ccccc21)NC1CCCCC1	-4.51
CS(=O)(=O)N(CC(=O)Nc1ccc2c(c1)OCO2)Cc1ccccc1	10.6
CC(=O)Nc1ccc(NS(=O)(=O)c2cccc3ccccc23)cc1	-0.467
COc1ccc(CNC(=O)c2cc(-c3cc(C)cc(C)c3O)n[nH]2)cc1	13.3
Cc1cc(C)cc(N2CC34C=CC(O3)C(C(=O)OCC(=O)NCc3ccco3)C4C2=O)c1 (stereo not drawn)	-19

Source: paper PMC4336329 (PLoS ONE, 2015)
